Residue numbers refer to the chain shown, from its start. Each block holds one binder with its values, some of them ahead of it.
Experiments:
[1] = target: T1, TGFβ1 (Sinobiological, catalog number: 10804-HNAC); experiment: ELISA, TGFβ1 coated at 0.05 µg/mL, fusion protein 1 µg/mL
T1 construct: Bought recombinant protein; also called TGFβ1 protein

[2] = target: T1, TGFβ1 (Sinobiological, catalog number: …); experiment: ELISA, TGFβ1 coated at 0.2 µg/mL, fusion protein 1 µg/mL
[3] = target: T1, TGFβ1 (Sinobiological, catalog number: …); experiment: ELISA, TGFβ1 coated at 0.0125 µg/mL, fusion protein 1 µg/mL
[4] = target: T2, PDL1 protein (Sinobiological, catalog number: 10084-H08H); experiment: SPR (BIAcore 8K), fusion protein captured by anti-human IgG Fc, PDL1 as analyte 3.125-50 nM, 1:1 model
T2 construct: Bought recombinant protein

OD450 [1]: 2.14 OD450
OD450 [2]: 4.12 OD450
OD450 [3]: 0.636 OD450
Kd [4]: 0.904 nM
koff [4]: 0.00167 s⁻¹
kon [4]: 1.85e+06 M⁻¹ s⁻¹
B1: PLTGBQ21-BA649-IgG1 (other)
heavy: EVQLVQSGGGVVQPGRSLRLSCAASGFTFSSYAMHWVRQAPGKGLEWVALISYDGSNKYYADSVKGRFTISRDNSKNTLYLQMNSLRAEDTAVYYCARDRIYFDYWGQGTLVTVSS[human IgG1 constant region not listed]GGGGSGGGGSGGGGSGGGGSGIPPHVQKSVNNDMIVTDNNGAVKFPQLCKFCDVRFSTCDNQKSCMSNCSITSICEKPQEVCVAVWRKNDENITLETVCHDPKLPYHDFILEDAASPKCIMKEKKKPGETFFMCSCSSDECNDNIIFSEEYNTSNPD
light: [about 200 residues not listed]
notes: Bifunctional fusion protein: anti-PDL1 IgG1 antibody with a TGFβRII fragment at the C-terminus of the heavy chain

OD450 [1]: 2.18 OD450
OD450 [2]: 4.04 OD450
OD450 [3]: 0.836 OD450
Kd [4]: 0.577 nM
koff [4]: 0.000837 s⁻¹
kon [4]: 1.45e+06 M⁻¹ s⁻¹
B2: PLTGBQ24-BA705-IgG1 (other)
heavy: B1 heavy with F27I, S31N
light: [about 200 residues not listed]
notes: as for B1

OD450 [1]: 2.11 OD450
OD450 [2]: 3.7 OD450
OD450 [3]: 0.758 OD450
Kd [4]: 0.529 nM
koff [4]: 0.000795 s⁻¹
kon [4]: 1.5e+06 M⁻¹ s⁻¹
B3: PLTGBQ19-BA533-IgG1 (other)
heavy: B1 heavy with S31N, L50I, S52T, D54A, K58E, A88P, Y102W, F103V
light: [about 200 residues not listed]
notes: as for B1
